According to article PMC10806146:
Substitutions are numbered along the chain they refer to. Numbers in names are those of the source. Results are given in words; binding and its absence hold for the method and conditions named. Binding seen in cells or lysates may run through a third protein. Some entries that bind do so weakly or less than the wild type. For part of these data: Tags and fused reporters may be left off the sequences shown. Each block holds one molecule with its values, some of them ahead of it.

Sequences of proteins named here, by UniProt entry; tags and fusion partners are left off.
UniProt Q99836: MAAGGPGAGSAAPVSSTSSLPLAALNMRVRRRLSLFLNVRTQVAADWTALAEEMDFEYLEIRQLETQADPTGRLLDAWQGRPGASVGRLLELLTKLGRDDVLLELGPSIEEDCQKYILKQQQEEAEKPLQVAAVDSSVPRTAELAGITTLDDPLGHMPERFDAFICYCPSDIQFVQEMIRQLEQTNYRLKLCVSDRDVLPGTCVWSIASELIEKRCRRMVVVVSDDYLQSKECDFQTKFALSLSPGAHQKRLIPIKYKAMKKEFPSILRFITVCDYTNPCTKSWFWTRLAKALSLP

Key:
IRAK-M P478G (human) = biological target: T1, IRAK-M P478G (human) (UniProt Q9Y616); assay: co-IP; IRAK-M WT or mutant co-expressed with IRAK-4-FLAG and MyD88-HA in 293T cells; IP with anti-IRAK-M 1F6 and protein A/G agarose; blots with anti-FLAG, anti-HA and anti-IRAK-M 4369
T1 sequence: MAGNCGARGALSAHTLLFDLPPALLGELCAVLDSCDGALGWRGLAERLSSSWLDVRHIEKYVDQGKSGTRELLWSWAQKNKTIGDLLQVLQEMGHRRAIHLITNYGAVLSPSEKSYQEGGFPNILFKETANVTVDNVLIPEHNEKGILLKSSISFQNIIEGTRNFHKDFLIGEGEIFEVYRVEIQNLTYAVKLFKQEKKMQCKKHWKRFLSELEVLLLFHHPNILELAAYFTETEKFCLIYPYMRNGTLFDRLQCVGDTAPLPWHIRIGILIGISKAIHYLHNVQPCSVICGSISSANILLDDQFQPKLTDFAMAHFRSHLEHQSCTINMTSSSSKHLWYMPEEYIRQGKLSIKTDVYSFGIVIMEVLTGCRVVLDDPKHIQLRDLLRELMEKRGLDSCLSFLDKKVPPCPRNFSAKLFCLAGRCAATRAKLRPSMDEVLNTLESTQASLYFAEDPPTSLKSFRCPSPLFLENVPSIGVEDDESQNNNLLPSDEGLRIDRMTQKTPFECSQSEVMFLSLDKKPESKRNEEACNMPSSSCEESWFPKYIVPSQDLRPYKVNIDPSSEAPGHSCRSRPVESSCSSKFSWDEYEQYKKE

IRAK-M Y105A (human) = biological target: T2, IRAK-M Y105A (human) (UniProt Q9Y616); assay: as above
T2 sequence: T1 sequence with Y105A, G478P

IRAK-M R97Q (human) [1] = biological target: T3, IRAK-M R97Q (human) (UniProt Q9Y616); assay: as above
T3 sequence: T1 sequence with R97Q, G478P

[2] = biological target: T4, interleukin-1 receptor associated kinase-M (IRAK-M), wild type (human) (UniProt Q9Y616); assay: as above
T4 sequence: T1 sequence with G478P

IRAK-M W74A (human) [3] = biological target: T5, IRAK-M W74A (human) (UniProt Q9Y616); assay: as above
T5 sequence: T1 sequence with W74A, G478P

IRAK-M W74A (human) [4] = biological target: T5, IRAK-M W74A (human); assay: as above; remark: listed apart in the source
[5] = biological target: T4, interleukin-1 receptor associated kinase-M (IRAK-M), wild type (human); assay: co-IP; full-length IRAK-M (WT or mutant) co-expressed with its 526stop form in 293T cells (CRISPR control; also IRAK-1 KO); IP with 1F6, which recognises the end of the C-terminal domain; blot with anti-IRAK-M A5467
IRAK-M R97Q (human) [6] = biological target: T3, IRAK-M R97Q (human); assay: as above
IRAK-M W74A (human) [7] = biological target: T5, IRAK-M W74A (human); assay: as above

B1: IRAK-4-FLAG (protein, UniProt Q9NWZ3 1-460)
chain: MNKPITPSTYVRCLNVGLIRKLSDFIDPQEGWKKLAVAIKKPSGDDRYNQFHIRRFEALLQTGKSPTSELLFDWGTTNCTVGDLVDLLIQNEFFAPASLLLPDAVPKTANTLPSKEAITVQQKQMPFCDKDRTLMTPVQNLEQSYMPPDSSSPENKSLEVSDTRFHSFSFYELKNVTNNFDERPISVGGNKMGEGGFGVVYKGYVNNTTVAVKKLAAMVDITTEELKQQFDQEIKVMAKCQHENLVELLGFSSDGDDLCLVYVYMPNGSLLDRLSCLDGTPPLSWHMRCKIAQGAANGINFLHENHHIHRDIKSANILLDEAFTAKISDFGLARASEKFAQTVMTSRIVGTTAYMAPEALRGEITPKSDIYSFGVVLLEIITGLPAVDEHREPQLLLDIKEEIEDEEKTIEDYIDKKMNDADSTSVEAMYSVASQCLHEKKNKRPDIKKVQQLLQEMTAS
- binding (IRAK-M W74A (human) [4]): no binding

B2: IRAK-M K526Stop (domain or fragment, UniProt Q9Y616 1-525)
chain: MAGNCGARGALSAHTLLFDLPPALLGELCAVLDSCDGALGWRGLAERLSSSWLDVRHIEKYVDQGKSGTRELLWSWAQKNKTIGDLLQVLQEMGHRRAIHLITNYGAVLSPSEKSYQEGGFPNILFKETANVTVDNVLIPEHNEKGILLKSSISFQNIIEGTRNFHKDFLIGEGEIFEVYRVEIQNLTYAVKLFKQEKKMQCKKHWKRFLSELEVLLLFHHPNILELAAYFTETEKFCLIYPYMRNGTLFDRLQCVGDTAPLPWHIRIGILIGISKAIHYLHNVQPCSVICGSISSANILLDDQFQPKLTDFAMAHFRSHLEHQSCTINMTSSSSKHLWYMPEEYIRQGKLSIKTDVYSFGIVIMEVLTGCRVVLDDPKHIQLRDLLRELMEKRGLDSCLSFLDKKVPPCPRNFSAKLFCLAGRCAATRAKLRPSMDEVLNTLESTQASLYFAEDPPTSLKSFRCPSPLFLENVPSIPVEDDESQNNNLLPSDEGLRIDRMTQKTPFECSQSEVMFLSLDKKPES
- binding [5]: binds

Results, then the molecule that gave them:

- binding (IRAK-M P478G (human)): binds
- binding (IRAK-M Y105A (human)): binds
- binding (IRAK-M R97Q (human) [1]): binds
- binding [2]: binds
- binding (IRAK-M W74A (human) [3]): no binding
Molecule: MyD88-HA (from UniProt Q99836 1-296)

- binding (IRAK-M R97Q (human) [6]): binds
B3: IRAK-M R97Q/526stop (domain or fragment, UniProt Q9Y616 1-525)
chain: B2 chain with R97Q

- binding (IRAK-M W74A (human) [7]): binds
B4: IRAK-M W74A/526stop (domain or fragment, UniProt Q9Y616 1-525)
chain: B2 chain with W74A
